About 2,200 (0.71%) of roughly 310,000 compounds showed an effect of 50% or more. The effect is printed as a negative number. This is one part of the list.
target: human ether-à-go-go-related gene (hERG) potassium channel (human, UniProt Q12809); assay: primary screen, population patch clamp on CHO cells stably expressing hERG
Sequence (Q12809 whole entry, looked up): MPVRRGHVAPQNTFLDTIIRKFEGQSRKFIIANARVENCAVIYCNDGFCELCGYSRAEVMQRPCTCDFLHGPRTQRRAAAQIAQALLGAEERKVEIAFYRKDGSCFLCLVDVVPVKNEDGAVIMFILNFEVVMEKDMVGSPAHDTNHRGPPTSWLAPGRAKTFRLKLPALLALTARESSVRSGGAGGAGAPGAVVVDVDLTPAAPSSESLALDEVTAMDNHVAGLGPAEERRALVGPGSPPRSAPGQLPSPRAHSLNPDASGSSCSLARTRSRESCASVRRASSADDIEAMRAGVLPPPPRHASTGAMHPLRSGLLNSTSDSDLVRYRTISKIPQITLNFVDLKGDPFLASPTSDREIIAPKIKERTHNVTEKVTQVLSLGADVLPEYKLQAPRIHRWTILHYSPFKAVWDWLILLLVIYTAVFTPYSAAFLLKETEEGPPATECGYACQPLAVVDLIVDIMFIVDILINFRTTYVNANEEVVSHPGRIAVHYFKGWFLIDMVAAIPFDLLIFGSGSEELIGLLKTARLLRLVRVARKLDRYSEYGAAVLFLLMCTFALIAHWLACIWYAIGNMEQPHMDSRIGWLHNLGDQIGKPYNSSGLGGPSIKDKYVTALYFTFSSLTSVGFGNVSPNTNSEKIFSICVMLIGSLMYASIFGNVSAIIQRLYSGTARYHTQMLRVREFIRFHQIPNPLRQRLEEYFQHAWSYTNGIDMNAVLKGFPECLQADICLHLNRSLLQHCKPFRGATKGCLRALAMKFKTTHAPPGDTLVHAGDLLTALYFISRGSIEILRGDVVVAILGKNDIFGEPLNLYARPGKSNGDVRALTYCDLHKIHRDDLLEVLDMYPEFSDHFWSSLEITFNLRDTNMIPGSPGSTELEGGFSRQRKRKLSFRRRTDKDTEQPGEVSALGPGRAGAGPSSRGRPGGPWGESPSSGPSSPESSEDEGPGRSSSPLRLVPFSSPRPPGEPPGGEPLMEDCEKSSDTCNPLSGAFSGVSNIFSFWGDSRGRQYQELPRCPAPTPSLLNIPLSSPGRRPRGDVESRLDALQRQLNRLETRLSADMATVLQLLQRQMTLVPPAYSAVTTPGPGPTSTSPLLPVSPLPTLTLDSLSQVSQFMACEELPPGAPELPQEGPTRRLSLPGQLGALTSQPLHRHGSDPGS

SMILES | hERG current change (%, negative = inhibition) at 1uM [%]
CC(=O)N1Cc2cc([N+](=O)[O-])ccc2Oc2ccccc21 | 0.114
CC(C)(CO)NCC(O)Cn1cc(C=O)c2ccccc21 (stereo not drawn) | 16.8
Fc1ccc(F)c(CNc2ncnc3cc(Cl)ccc23)c1 | 13.8
Cc1cccc(NC(=S)NCc2ccco2)n1 | 6.81
C[C@@H](CN1C(=O)C(=O)NC[C@@H]1C)NC(=O)CC12CC3CC(CC(C3)C1)C2 | 13.9
Cc1onc(-c2ccccc2)c1-c1n[nH]c(=S)n1-c1ccc(C(=O)O)cc1 | 16.5
O=C(Nc1cccnc1)c1ccc(COc2ccccc2Br)o1 | 9.66
S=C(Nc1ccc(Cl)cc1)N1CCN(C2CCCCC2)CC1 | -1.99
O=C(Nc1ccccc1)/C(=C\c1ccc2c(c1)OCO2)NC(=O)c1ccco1 | 9.59
Cc1ccc(S(=O)(=O)CCC(=O)OCC(=O)NCC(=O)Nc2c(C)cc(C)cc2C)cc1 | 5.77
Cc1ccc(S(=O)(=O)O/N=C2\CCCc3ccccc32)cc1 | 10.3
O=C(NC(=S)N1CCN(c2ccc([N+](=O)[O-])cc2)CC1)c1ccc(F)cc1 | -16.6
Cc1ccsc1C(=O)NNC(=O)C1CC=CCC1C(=O)O (stereo not drawn) | -0.401
COc1cc2[nH]c(=S)n(NC(=O)CC(C)C)c(=O)c2cc1OC | 7.27
Brc1ccc(-c2nn[nH]n2)cc1 | 13.1
CCOC(=O)N1CCC(NC(=O)c2ccc3c(c2)N(C)C(=O)/C(=C/c2cccc(OC)c2)S3)CC1 | 9.68
Cc1c(N=N/C(C(=O)Nc2ccccc2)=C(/O)c2ccccc2)c(=O)n(-c2ccccc2)n1C | 9.48
C=CCNC(=S)NCc1ccccc1 | 6.64
CCOC(=O)NN1C(=O)c2ccccc2NC1C (stereo not drawn) | -5.18
N=c1c2c(-c3ccccc3)c(-c3ccccc3)n(Cc3ccco3)c2ncn1Cc1ccco1 | -26.8
O=C1c2ccccc2-c2nnc(-c3ccc(F)cc3)cc21 | 4.98
O=c1[nH]cnc2c1c(-c1ccccc1)cn2-c1cccc(Cl)c1 | 7.89
Cn1c(-c2cccs2)[n+](C)c2ccccc21.[Cl-] | 6.22

SMILES | hERG current change (%, negative = inhibition) at 1uM [%]
CCN1CCN(C(CNS(=O)(=O)c2cccs2)c2cccnc2)CC1 (stereo not drawn) | -26.8
COc1ccc2c(c1)C(C)=CC(C)(C)N2C(=O)CNCc1ccc2c(c1)OCO2.O=C(O)C(=O)O | -6.29
CC(C)(C)C1CCC(OC(=O)CCC(=O)Nc2ccccc2)CC1 (stereo not drawn) | 11
CCn1c(CN2CCN(c3ccc(OC)cc3)CC2)nc2cc(S(=O)(=O)N(C)C)ccc21 | 15.6
COc1ccccc1C1CC(c2ccc(Cl)cc2Cl)Nc2nc(N)nn21 (stereo not drawn) | -7.45
C=CCNc1nc(C(=O)OCC(=O)Nc2c(Cl)cccc2C(F)(F)F)cs1 | 18.2
O=Cc1ccc(Oc2cnccn2)cc1 | 15.7
CCn1cc(Br)c(C(=O)N(C)Cc2ccccc2)n1 | 11.4
COC(=O)c1scc2c(Oc3ccccc3)cc(C(F)(F)F)nc12 | 20
Cc1ccc(C2NCCS2)cc1 (stereo not drawn) | 12.2
O=C1C/C(=C/NCc2ccccc2)C(=O)N1 | 16.4
CC1(C)C(=O)OC(c2cc(Br)ccc2O)C(C)(C)C1=O (stereo not drawn) | 7.33
CCCn1nnnc1NC(=O)COc1ccc(CC)cc1 | 6.24
CC(C)(Cc1ccc(O)cc1)NC(=O)c1ccccc1 | 5.46
Cc1ncc(CN2CCCC(C(=O)Nc3ccc(-n4ccnc4C)cc3)C2)cn1 (stereo not drawn) | 13
C=CCOc1ccc(/C=C/C(=O)OCC(=O)NCc2cccc(OC)c2)cc1 | 6.65
Cc1ccc(-n2nnnc2C(Cl)(Cl)c2nnnn2-c2ccc(C)cc2)cc1 | 4.37
CCC(C)N(CC(=O)NCc1ccc(OC)cc1)C(=O)c1csnn1 (stereo not drawn) | -5.54
CCOC(=O)Cn1c(=N)n(CCOc2ccc3ccccc3c2)c2ccccc21.Cl | -20.9
CS(=O)(=O)N(CC(=O)N1CCc2ccccc2C1)c1cccc(Br)c1 | 1.25
Cc1c(NC(=O)c2cc(=O)[nH]c3ccccc23)c(=O)n(-c2ccccc2)n1C | 14.6
COc1cc(CCC(C)=O)ccc1OC(=O)c1c(F)cccc1Cl | 3.27

Source: PMC4336329 (PLoS ONE, 2015)
